The whole screen tested about 310,000 compounds, of which about 2,200 (0.71%) showed an effect of 50% or more. Effects have a minus sign here. The list shows a part of the results.

human ether-à-go-go-related gene (hERG) potassium channel, sequence (Q12809 whole entry, looked up): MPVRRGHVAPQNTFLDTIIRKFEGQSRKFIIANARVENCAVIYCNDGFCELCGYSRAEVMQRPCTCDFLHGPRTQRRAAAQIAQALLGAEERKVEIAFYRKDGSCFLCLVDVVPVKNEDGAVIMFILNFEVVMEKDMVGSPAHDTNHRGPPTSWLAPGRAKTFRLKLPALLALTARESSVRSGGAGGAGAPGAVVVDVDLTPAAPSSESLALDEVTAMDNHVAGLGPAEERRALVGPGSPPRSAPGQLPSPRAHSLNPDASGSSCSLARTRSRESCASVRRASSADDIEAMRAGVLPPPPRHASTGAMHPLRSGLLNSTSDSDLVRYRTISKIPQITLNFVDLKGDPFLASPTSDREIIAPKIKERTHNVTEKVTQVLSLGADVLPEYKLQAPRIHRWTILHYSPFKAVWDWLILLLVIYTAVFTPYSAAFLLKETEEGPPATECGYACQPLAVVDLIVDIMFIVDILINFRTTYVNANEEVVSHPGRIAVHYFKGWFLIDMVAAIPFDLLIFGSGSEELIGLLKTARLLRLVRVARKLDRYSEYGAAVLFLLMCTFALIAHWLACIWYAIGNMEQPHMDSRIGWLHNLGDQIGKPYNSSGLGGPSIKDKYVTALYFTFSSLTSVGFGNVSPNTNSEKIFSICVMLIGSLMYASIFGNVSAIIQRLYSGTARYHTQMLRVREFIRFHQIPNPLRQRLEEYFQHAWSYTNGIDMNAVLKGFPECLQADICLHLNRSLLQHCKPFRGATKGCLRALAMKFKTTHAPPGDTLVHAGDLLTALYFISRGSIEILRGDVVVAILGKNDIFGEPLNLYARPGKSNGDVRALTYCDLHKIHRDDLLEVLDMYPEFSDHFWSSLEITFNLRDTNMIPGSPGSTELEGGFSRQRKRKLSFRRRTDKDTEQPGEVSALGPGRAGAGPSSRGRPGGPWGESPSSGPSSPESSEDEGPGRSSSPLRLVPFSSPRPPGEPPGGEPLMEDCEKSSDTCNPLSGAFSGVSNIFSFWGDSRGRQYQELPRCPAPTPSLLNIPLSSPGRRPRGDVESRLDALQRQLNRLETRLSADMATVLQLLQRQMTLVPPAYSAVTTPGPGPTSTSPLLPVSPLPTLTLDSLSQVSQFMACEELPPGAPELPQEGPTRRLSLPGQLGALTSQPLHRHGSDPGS

The assay addresses human ether-à-go-go-related gene (hERG) potassium channel (human, UniProt Q12809). Put plainly: primary screen, population patch clamp on CHO cells stably expressing hERG.
For `CC(OC(=O)Cc1n[nH]c(=O)c2ccccc12)C(=O)Nc1ccc(F)cc1` (centres unmarked), the “hERG current change (%, negative = inhibition) at 1uM” value is -2.68%.
As for `Clc1cccc(NCc2ccccc2)n1`, the figure is -9.27%.
With `COc1cc(/C=C/C(=O)Nc2ccncc2)cc(OC)c1OC` the figure was 14%.
As for `CCCCCN(CCCCC)C(=O)C(CCC(=O)[O-])NC(=O)c1ccc(Cl)c(Cl)c1.[Na+]` (centres unmarked), the figure is 6.63%; as for `COc1ccc(NC(=O)Nc2ccc(Br)c(C)c2)cc1`, 22%.
Turning to `COc1ccc(C(=O)NCCSc2ccccc2)cc1`, the “hERG current change (%, negative = inhibition) at 1uM” value is reported as 12.4%.
Regarding `CCN(CC)S(=O)(=O)c1cccc(NC(=O)COC(=O)c2ccc(Br)o2)c1`, the “hERG current change (%, negative = inhibition) at 1uM” value was 6.72%.
With `COc1cccc(Cn2c(OCC3CCCO3)nc3c2c(=O)n(C)c(=O)n3C)c1` (centres unmarked) the figure was 0.0483%.
Take `Cc1ccc(-c2nc3ccccc3c(=O)n2-c2ccc(O)cc2)cc1`: the “hERG current change (%, negative = inhibition) at 1uM” value is listed as 10.4%.
With `CC(C)N(C=O)C1(C(=O)NC2CCCCC2)CCCCC1`, the “hERG current change (%, negative = inhibition) at 1uM” value was 1.56%.
As for `CC(=O)Nc1ccc(S(=O)(=O)N(C)CC(=O)OC(C)C(=O)NC2CCCC2)cc1` (centres unmarked), the figure is 10%.
As for `CC1CCN(S(=O)(=O)c2ccc(S(=O)(=O)NCc3ccco3)cc2)CC1`, the figure is 5.3%; as for `Cc1ccccc1CNC(=O)c1ccc2nc(N3CCOCC3)sc2c1`, 6.49%; as for `CN(C)CCCNc1cc(-c2ccccc2)nc2cc(-c3cccc(F)c3)nn12`, 5%.
With `c1ccc(-c2nc(NCc3ccco3)c3ccccc3n2)nc1` the figure was -19.6%; with `CCOC(=O)C(C(C)C)C(N)Cc1ccc(F)cc1` (centres unmarked), 4.84%; with `CCC(OC(=O)c1ccco1)C(=O)NCc1ccco1` (centres unmarked), 11.6%.
Take `O=C(CCSc1ccc(Cl)cc1)c1cccs1`: the “hERG current change (%, negative = inhibition) at 1uM” value stood at 1.85%.
Regarding `CN(CC(=O)Nc1ccc(F)cc1)C(=O)COC(=O)c1ccc(-c2ccccc2)cc1`, the “hERG current change (%, negative = inhibition) at 1uM” value was found to be 8%.
As for `Nc1nc(Nc2cccc(F)c2)nc(NCCO)c1[N+](=O)[O-]`, the figure is 10.8%; as for `Cl.O=C(NCC(c1ccc(F)cc1)N1CCOCC1)c1ccc(Br)o1` (centres unmarked), 5.42%.
With `Cc1csc(=N)n1-c1ccc(Cl)cc1` the figure was 4.16%; with `COc1ccc(CNC(=O)C23CN(Cc4ccccc4)CC2C(c2ccc([N+](=O)[O-])cc2)=NO3)cc1` (centres unmarked), -2.91%.
With `CCOC(=O)c1c(C)c(C(=O)NCCN2CCOCC2)c(C)n1CC` the figure was 4.39%; with `O=C(COn1nnc2ccccc21)N1CCN(Cc2ccccc2)CC1`, 2.38%.
For the compound `CCCN(CCC)CCCNC(=O)CNC(=O)c1nn(-c2ccc(OC)cc2)c(=O)c2ccccc12`, the “hERG current change (%, negative = inhibition) at 1uM” value is recorded as -4.95%.

(Values after publication PMC4336329 (PLoS ONE, 2015).)
